# ± gives the standard deviation. The full ranking holds about 6,600 sequences; the median of “pre-steady-state target cleavage rate” is about 0.07, and the highest 2% start at about 0.72. Only a part is listed here, and it is no random draw.
# Test system: MIWI (PIWIL1) piRISC loaded with Kctd7 piRNA (30 nt)
# Assay: pre-steady-state target cleavage rate (min^-1); MIWI and MILI are mouse PIWI proteins and EfPiwi is from a freshwater sponge; tags in brackets are library labels; higher = faster piRNA-guided slicing of the target
# Conditions: guide: Kctd7 piRNA 5'p-UGUUAAUCUCUCAGAGAAGGUGACAGUGAU; auxiliary factor: 500 nM mouse GTSF1
# Outline: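 A burst-and-steady-state fit was used to obtain the pre-steady-state cleavage rate. The input data were sequencing reads of uncleaved targets, normalised to depth and to weakly complementary targets, from a […] transcribed, DNA-blocked target RNA library mixed with 1 nM active affinity-purified piRISC holding one synthetic guide, with or without 500 nM GTSF1 partner protein, in HEPES–potassium acetate buffer at 33 °C for 0–8 or 0–960 min. Three trials were pooled and k3 was capped at 0.0001 min^-1.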
# 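Further: 1 nM active piRISC with 0.1 nM target library at 33 °C single turnover.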
row,Sequence,pre-steady-state target cleavage rate
1,UUCACUGUCAGCUUCUCUGAGUGAUUAACA,0.023 ± 0.0043
2,AUCACUGUCACCUUGUCUGUGAGAUUAACA,0.175 ± 0.013
3,AUCACAGUCACCUUCUCUGAGAGAUAUUGA,0.076 ± 0.029
4,UAGUGACAGUCCUUGUCUGAGAGUUUAACA,0.00411 ± 0.0029
5,UUCACUGAGACCUUCUCUGAGAGAUUUUGA,0.0226 ± 0.0069
6,UAGUGAGUCACCUUCUCUGAGAGUUAAACA,0.304 ± 0.047
7,UAGUGACUCACCAUCUCUCAGAGAUUAACA,0.00669 ± 0.003
8,UAGACUGUCACCUUCUCUGAGAGAUUAAACA,0.48 ± 0.043
9,UACACUGUCACCUAGUCUGAGAGAUUAAGA,0.0776 ± 0.018
10,UACACUGUCAGCUUCUCUGAGACAUUAACA,0.0142 ± 0.0034
11,AUCACUCACACCUUCUCUGAGAGAUAUUGA,0.0544 ± 0.021
12,UUCACUGUCACCUUCUCUGAGUGAAUAACA,0.0221 ± 0.0057
13,AUCACUGACACCUUCUCUGAGAGAUUUUGA,0.15 ± 0.029
14,UAGACUGUCACCAUUCUCUGAGAGAUUAACA,0.792 ± 0.055
15,UAGUGUGUCACCUUCUGUGAGAGAUUUACA,0.136 ± 0.017
16,UAGUGAGUCACCUUCUCUGUGAGAUUAUCA,0.0619 ± 0.013
17,UAGUCUGUGACCUACUCUGAGAGAUUAACA,0.496 ± 0.03
18,UAGUGACAGUCCUUCUCUGAGAGAGUAACA,0.023 ± 0.0053
19,UACACAGUCACCUUCUCUCAGAGAUUAACA,0.115 ± 0.014
20,UAGUGACACACCUACUCUGAGAGAUAAACA,0.073 ± 0.0083
21,UACACUGUCACCUUCACUGAGUGAUUAACA,0.0291 ± 0.0062
22,UAGUGUGUCACCUUCUCUGAGAGUAAUUGA [g8:g25:cont:t1A],0.0793 ± 0.023
23,AUCACUGUCACCUUCUCUCUCAGAUUAAGA,0.00483 ± 0.0037
24,AUGACUGUGACCUUCUCUGAGAGAUUAACA,0.641 ± 0.045

row,Sequence,pre-steady-state target cleavage rate
1,UUCACUGUCACCUAGUCUGAGAGAUAUUGA,0.0365 ± 0.013
2,UUCACUGUCACCUUCUCUGAGAGUUUUUGA,0.213 ± 0.048
3,UAGUGUGUCACCUUCUCUCAGAGAAUAACA,0.0238 ± 0.0076
4,UAGUGACACACCUUGUCUCAGAGAUUAACA,0.00775 ± 0.0029
5,UUCACUGUCACCUUCACUGAGACAUUAACA,0.172 ± 0.018
6,UAGAGUGUCACCUUCUCUGAGAGAAUAACA,0.366 ± 0.058
7,UAGUGACACACCUUCUCAGAGAGAUUAACA,0.175 ± 0.03
8,UACACUGUCACCUUCUCUGAAAGAUUAACA,0.456 ± 0.029
9,UUCACUGUCACCUUCUCUGAGAGAUUAAUCA,0.351 ± 0.038
10,UAGACUGUCACCUUCUCUGAGAGAUUAAAA,0.177 ± 0.024
11,UAGUGACACACCUUCUCAGAGAGAUUAUCA,0.0516 ± 0.012
12,UAGUCUCAGACCUUCUCUGAGAGAUUAAGA,0.0281 ± 0.0056
13,UAGUCAGUCACCUUCACUGAGAGAUUAACA,0.401 ± 0.025
14,UAGUGACUCACCUUCUGUGAGAGAUUAUCA,0.0148 ± 0.0029
15,UAGUGUGUCACCUUCUCAGAGAGAUUAAGA,0.101 ± 0.016
16,UAGUGAGUCACAUUCUCUGAGAGAUUAACA,0.69 ± 0.041
17,AUCACUGUCACCUUCUCUGCGAGAUUAACA,0.488 ± 0.045
18,UAGUGACUCACCUUCUCUGAAAGAUUAACA,0.524 ± 0.025
19,UAGUCUGUCACCUUCUCUGAGAGUUUUUGA,0.107 ± 0.026
20,UUCACUGUCACGUUCUCUGAGAGUUUAACA,0.161 ± 0.021
21,UAGACUGUCAGCAUCUCUGAGAGAUUAACA,0.474 ± 0.04
22,UAGUCUGUCACGUUCUCUGACAGAUUAACA,0.0122 ± 0.0037
23,UAGUGAGUCACCUACUCUGAGAGAUUUUGA,0.00815 ± 0.0053
24,UUCACUGUCCACCUUCUCUGAGAGAUUAACA,0.551 ± 0.045

row,Sequence,pre-steady-state target cleavage rate
1,UAGUGACACACCUUCUGUGAGAGAUUAACA,0.389 ± 0.032
2,UUCACUGUCACCUUCUCUGAGAGGAUUAACA,0.326 ± 0.031
3,UUCACUGUCACCUUCCUGAGAGAUUAACA,0.112 ± 0.023
4,AUCACUGUCACCUAUCUCUGAGAGAUUAACA,0.651 ± 0.041
5,UACAGACUCACCUUCUCUGAGAGAUUAUGA,0.0873 ± 0.014
6,AUCUCUGUGACCUUCUCUGAGAGAUUAACA,0.597 ± 0.03
7,UUCACUGUCACCUUGAGUGAGAGAUUAACA,0.0167 ± 0.0088
8,UAGUCUGUCACCUUCUCUGAGACAUUAAGA,0.00787 ± 0.0027
9,AUCACUCACACCUUCUCUGAGAGAUUAAGA,0.0991 ± 0.021
10,UAGUGACUCACCUUCUCUGAGAGAUAUAACA,0.142 ± 0.015
11,UAGACUGUCACCUUCUGUGAGAGAAUAACA,0.176 ± 0.025
12,UAGUCUGUCACCUUCUCAGAGAGAUUAUCA,0.142 ± 0.022
13,UAGUGACAGUCCUUCUCUGAGAAGAUUAACA,0.0051 ± 0.002
14,AUCACUGUGUCCUUCUCUGAGAGAUUAUGA,0.133 ± 0.034
15,UAGUGACACACCUUCUCUGAGAGAUUUUCA,0.0725 ± 0.017
16,AUCACUGUCACCUUCUCUGAGAGUUUUUGA,0.419 ± 0.093
17,UAGUGACACACCUACUCUGAGAGAUUAAGA,0.0629 ± 0.015
18,UAGUGUGUCACCUUCUCUCAGUGAUUAACA,0.00771 ± 0.004
19,UUCACACACACCUUCUCUGAGAGAUUAAGA,0.13 ± 0.024
20,UAGUGACUCACCUACUCUCAGAGAUUAACA,0.008 ± 0.0025
21,AUCACUGUCUGCUUCUCUGAGAGAUUAAGA,0.126 ± 0.021
22,UACACUGUCAGCAUCUCUGAGAGAUUAACA,0.462 ± 0.026
23,UAGUCAGUCACCUUCUCUGAGAGAUUUACA,0.308 ± 0.03
24,UAGUGUGUCACCUUACUCUGAGAGAUUAACA,0.23 ± 0.02

# From the supplement of paper PMC10338343
